The values below come from PubChem BioAssay AID1656 (Sanford-Burnham Center for Chemical Genomics, 2009).

Molecules are shown by their SMILES. Some of the results follow. Further columns of the screen follow, without active or inactive calls. The list favours compounds with an active or inconclusive main result.

The nature of the experiment: inhibitors of hepatocyte lipid droplet formation, primary screen, imaging, high-throughput imaging, BODIPY stain (AID 1656).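 Note: cells counted across two imaged fields per well.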 The following applies: AML12 mouse hepatocytes, oleate lipid droplets, measured here: cell count, cytotoxicity flag, at 6.5 µM. In outline:
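Test system: AML12 mouse liver cells; schedule: overnight exposure; technique: high-content imaging of BODIPY-stained droplets and DAPI nuclei; read-out: % inhibition of corrected integrated BODIPY droplet signal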
Molecule `Cc1ccc(-n2nnnc2SCC(=O)Nc2ncc(Cc3ccccc3Cl)s2)cc1` displayed a cell count of 668 cells. To `CCOc1ccccc1NC(=O)CCCNC(=O)c1ccc(Cl)cc1` belongs 813 cells; to `CCOc1ccccc1NC(=O)CCC(=O)Nc1ccccc1OCC`, 747 cells. Next, `CC(C)c1ccccc1NC(=O)COC(=O)c1c2c(nc3ccccc13)CCN(Cc1ccccc1)C2`: 650 cells. To `COc1ccc(N=C2C(=Nc3ccc(OC)cc3)N(c3ccc(N(C)C)cc3)C(=S)N2c2ccc(OC)cc2)cc1` belongs 682 cells; to `CCOc1nc(-c2ccncc2)nc2ccccc12`, 750 cells. Molecule `Cn1c(=O)c(C(=O)COC(=O)c2cc(C3CC3)nc3ccccc23)c(N)n(Cc2ccccc2)c1=O` came in with a cell count of 731 cells.

`O=C(Cc1cccc2ccccc12)Nc1nc(-c2cccc([N+](=O)[O-])c2)cs1` returned a cell count of 693 cells.

Regarding `CCOC(=O)c1ccc(NC(=O)CN(Cc2ccc(Cl)cc2)S(C)(=O)=O)cc1`, the cell count amounted to 790 cells. Next, `CN(C(=O)CSc1cc(C(=O)c2nccn2C)c2ccccc2n1)c1ccccc1`: 641 cells; `COc1ccc(F)cc1CN1CCN(c2ncnc3scc(-c4ccccc4)c23)CC1`: 662 cells; `CCOc1ccc(C(=O)CCC(=O)NCC(=O)OCc2ccccc2)cc1OCC`: 802 cells. The molecule `CC1=C(C(=O)Nc2cccc(F)c2)C(c2ccsc2)C2=C(CC(C)(C)CC2=O)N1` (stereo not given) displayed a cell count of 205 cells.

Consider `Cc1oc2ccc(OCc3ccc(F)cc3Cl)cc2c1C(=O)O`, for which the cell count was 755 cells. `COc1cc(NC(=O)c2cccs2)c(OC)cc1NC(=O)CCC(=O)Nc1ccc(C)cc1` came in with a cell count of 756 cells. Next, `CCOc1ccc(CCNC(=O)COC(=O)c2cc(OC)cc(OC)c2)cc1OCC`: 700 cells; `C=CCN1C(=O)c2ccccc2Sc2ccc(C(=O)NCC(OC)OC)cc21`: 881 cells; `C/C(=N\Nc1ccc(S(=O)(=O)Nc2ccccc2)cc1[N+](=O)[O-])c1ccc(N2CCOCC2)cc1`: 713 cells. Next, `COc1ccc(/C=N/NC(=O)COc2ccccc2-c2ccccc2)cc1`: 146 cells; `CCn1cc(CCCC(=O)NCc2ccccc2OC)c2ccccc21`: 834 cells. Next, `O=C(COc1ccc(Cl)cc1)Nc1ccc2c(c1)C(=O)NC2=O`: 737 cells; `COc1ccc(C(=O)OCC(=O)NC(C)CCc2ccccc2)c(OC)c1` (stereo not given): 810 cells. For the molecule `CCOc1ccc(CCNC(=O)/C=C/c2ccco2)cc1OCC`, the cell count turned out to be 696 cells. Take `Oc1ccc(N=Nc2cccc(C(F)(F)F)c2)cc1C=Nc1ccc(N2CCOCC2)cc1`: the cell count is 537 cells. Next, `Cc1ccc(Sc2c(CO)c(-c3ccccc3)nn2C)cc1`: 281 cells; `COc1cccc(N/C(N)=N/c2nc(CSc3ccccn3)cc(=O)[nH]2)c1`: 204 cells; `Cc1nc(NC(=O)c2ccc(OCC(C)C)cc2)sc1Cc1ccc2c(c1)OCO2`: 588 cells. To `CCOCCn1c(=NC(=O)c2cc3ccccc3oc2=O)sc2cc(S(N)(=O)=O)ccc21` belongs 288 cells; to `Cc1cc(C(=O)N2CCc3c([nH]c4ccccc34)C2c2cccc(Cl)c2)nn1C` (stereo not given), 765 cells. To `C=C(C)c1cccc(C(C)(C)NC(=O)Nc2ccccc2OCC)c1` belongs 671 cells; to `COc1ccc(C2CC(c3cccs3)=NN2C(=O)c2ccc(Br)o2)cc1` (stereo not given), 730 cells; to `CCOc1ccc(N(CC(=O)Nc2ccccc2OCC)S(=O)(=O)c2c(C)noc2C)cc1`, 198 cells.

For the molecule `COC(=O)C1=C(C(=O)OC)SC(=C2C(=S)C(C)(C)N(C(=O)C(C)C)c3ccccc32)S1`, the cell count was determined as 721 cells.

Turning to `COc1cc([C@@H]2c3cc4c(cc3[C@H](O)[C@H]3COC(=O)[C@H]23)OCO4)cc(OC)c1OC`, the cell count is 40 cells. To `Cc1ccc(C)c(NS(=O)(=O)c2ccc(-c3cnc(C4CC4)o3)cc2)c1` belongs 227 cells.

In the case of `Cc1cccc(C(=O)N2CCN(CCNC(=O)C(=O)Nc3ccc(F)cc3)CC2)c1`, the cell count is 166 cells. To `CCOc1ccc(NS(=O)(=O)c2ccc(C(=O)N(CC)CC(=O)NCc3cccs3)cc2)cc1` belongs 850 cells; to `CCOC(=O)N1CCN(C(=O)CSCC(=O)Nc2nc(-c3cccs3)cs2)CC1`, 764 cells. The molecule `O=C(COC(=O)c1cc2ccccc2cc1O)Nc1cccnc1Cl` yielded a cell count of 290 cells. Regarding `CCOc1ccc(CCNC(=O)CCc2nnc3ccc(N4CCCCC4)nn23)cc1OCC`, the cell count was 709 cells.

As to `C=CCNC(=S)NNC(=O)C(CCCC)CC(C)(C)O` (stereo not given), the cell count worked out at 127 cells. To `COc1n[nH]c(C(=O)Nc2cc(F)ccc2C)c1[N+](=O)[O-]` belongs 732 cells. Next, `Cc1cccc2sc(NC(=O)CN(C)S(=O)(=O)c3cccs3)nc12`: 797 cells; `COc1ccc(OCCNc2cc(Cl)ccc2[N+](=O)[O-])cc1`: 233 cells; `CCCCCn1c(N)c(-c2nc3ccccc3s2)c2c([N+](=O)[O-])nn(CC)c(=O)c21`: 755 cells.

In turn, `CCOc1ccc(CCNC(=O)CCC(=O)N2CCOc3ccc(C)cc32)cc1OCC` gave a cell count of 757 cells. Next, `O=C(CSc1nc2[nH]ncc2c(=O)[nH]1)NCc1ccccc1`: 283 cells. Next, `CCCCCCCNC(=O)C1(CC2CC(c3ccc(Cl)cc3)=NO2)CCN(C(=O)c2cc(OCC)c(OCC)c(OCC)c2)CC1` (stereo not given): 822 cells; `COc1ccccc1CNS(=O)(=O)c1ccc2c(c1)CC(C)N2C(=O)C1CCC1` (stereo not given): 760 cells; `CCOc1ccc(CCNC(=O)CCC(=O)N2CCSc3ccccc32)cc1OCC`: 793 cells. To `O=C1/C(=C/c2ccc([N+](=O)[O-])cc2)CCC1C1CCCC1` (stereo not given) belongs 829 cells; to `CCOc1ccc(OCc2ccc(C(=O)N/N=C(\C)c3ccccn3)cc2)cc1`, 244 cells.

Regarding `Cc1cc(C)cc(NC(=O)CSc2nc3ccccc3nc2N2CCCC2)c1`, the cell count is 736 cells. `CCOC(=O)C1CCN(C(=O)C2(NC(=O)Nc3ccccc3Cl)CCCCC2)CC1`: the cell count was determined as 743 cells. Next, `CCCCCc1cc(=O)oc2c(C(CCN3CCCC(C)C3)c3ccc(N(C)C)cc3)c(OC)cc(OC)c12` (stereo not given): 707 cells; `CC(=O)c1ccc(Nc2nc(=O)c3cccnc3s2)cc1`: 749 cells. With `COc1cc(C2C=C(c3cccs3)Nc3ncnn32)cc(OC)c1OC` (stereo not given), the cell count amounted to 177 cells.

In the case of `CCOc1ccc(CN(C)C(=O)NNC(=O)c2ccc(C)cc2)cc1OC`, the cell count was 822 cells. Next, `COc1ccc(C(=O)OC(C)C(=O)NC(C)CCc2ccccc2)cc1OC` (stereo not given): 860 cells.

Turning to `CCOc1ccccc1NC(=O)CCCNC(=O)Cn1cnc2sc(C)c(C)c2c1=O`, the cell count came out at 801 cells. Next, `COc1ccc(Br)cc1CNC(=O)CCCc1cn(C)c2ccccc12`: 731 cells; `CCOC(=O)c1ccc(NC(=O)COc2ccc(S(=O)(=O)NC(C)(C)C)cc2)cc1`: 705 cells; `Cc1ccc(NC(=O)CN(C)S(=O)(=O)c2cccs2)c(Br)c1`: 856 cells. Molecule `CCCOc1ccc(C2=NNC(c3cccs3)=Nc3ccc(OC)cc32)cc1` came in with a cell count of 806 cells. Next, `Cc1ccc(NC2=C/C(=N\S(=O)(=O)c3cccs3)c3ccccc3C2=O)c(C)c1`: 142 cells; `COc1ccccc1N1CCN(C(=O)COc2ccc(S(=O)(=O)NC(C)(C)C)cc2)CC1`: 710 cells.

`Cc1ccc(CN2CCc3c(OCC(=O)Nc4cc(C)ccc4C)cccc3C2=O)cc1`: the cell count was 226 cells. Next, `O=C(CN(CC1CCCO1)S(=O)(=O)c1ccc(S(=O)(=O)NC2CC2)cc1)Nc1ccccc1` (stereo not given): 714 cells; `OCCCNc1cc(-c2ccnc(Nc3cccc(Cl)c3)n2)ccn1`: 393 cells; `Cc1cccc(N(Cc2cc(=O)[nH]c3ccccc23)C(=O)CCl)c1`: 839 cells. Next, `COc1cc(C(=O)N/N=C/c2sccc2C)cc(OC)c1OC`: 144 cells. As for `CCc1cccc(NC(=O)CCCn2nc(CC)n3c(cc4occc43)c2=O)c1`, the cell count was 686 cells. Next, `CCOc1ccc(NS(=O)(=O)c2ccc(C(=O)N3CCCCC3)cc2)cc1`: 827 cells; `Cn1cccc1-c1cc(C(=O)N/N=C/c2ccc(F)cc2)[nH]n1`: 53 cells. Turning to `CCCCOc1ccc(C(C)NC(=O)CCS(=O)(=O)Cc2ccc(C)cc2)cc1` (stereo not given), the cell count worked out at 614 cells. Next, `CCc1nnc(NC(=O)c2ccc(COc3cccc(C)c3)o2)s1`: 13 cells; `Cc1ccc(C(C(=O)NC(C)(C)C)N(Cc2ccco2)C(=O)CCC(=O)Nc2ccccn2)cc1` (stereo not given): 820 cells. To `CCOc1ccc(C2=NNC(c3cccs3)=Nc3ccc(OC)cc32)cc1OCC` belongs 745 cells; to `O=C(NC1CCCc2c1cnn2-c1cc(F)cc(F)c1)c1ccccn1` (stereo not given), 698 cells. Next, `CCOC(=O)[C@@H]1[C@H]2COc3ccc(Br)cc3[C@@H]2N2C(=O)N(c3ccc(C(F)(F)F)cc3)C(=O)[C@@]12C`: 764 cells. `CCOc1ccc(CCNC(=O)COC(=O)/C=C/c2ccc(OC)c(OC)c2)cc1OCC` displayed a cell count of 662 cells. Molecule `CCOc1ccc(CCNC(=O)c2ccc3ccccc3n2)cc1OCC` returned a cell count of 709 cells. To `COc1ccccc1NC(=O)N1CCC(c2nc3cc(C)c(C)cc3[nH]2)CC1` belongs 137 cells. Next, `CCOc1ccc(CCNC(=O)CN2C(=O)NC3(CCCC3)C2=O)cc1OCC`: 858 cells; `CCOc1ccccc1NC(=O)N1CCCC1C(=O)NCc1cccs1` (stereo not given): 734 cells; `O=C(CSc1nc(O)cc(=O)[nH]1)N1c2ccccc2Sc2ccccc21`: 721 cells. With `O=C(NCc1ccc2c(c1)OCO2)c1cc(-c2ccccn2)nc2ccccc12`, the cell count is 742 cells. Next, `COc1ccccc1-c1nnc(Nc2nc3c(OC)cccc3s2)o1`: 224 cells. To `O=c1c(C/C=C/c2ccccc2)c(O)ccn1CCc1c[nH]c2ccccc12` belongs 644 cells; to `COc1cc(NC(=O)c2ccco2)c(OC)cc1NC(=O)Nc1ccccc1Cl`, 734 cells. To `Cc1cccc(Nc2ncnc3ccccc23)c1` belongs 521 cells.

With `CCOc1ccc(CCNC(=O)Nc2ccccc2C)cc1OCC`, the cell count was found to be 398 cells.

The molecule `CN(C)S(=O)(=O)c1ccc(C(=O)NCC2CC2(Cl)Cl)cc1` (stereo not given) registered a cell count of 202 cells. To `Cc1ccc(C)c(C(=O)N2CCN(c3ncccn3)CC2)c1` belongs 839 cells; to `O=C(CSCC(=O)N1CCCc2ccccc21)Nc1nc(-c2ccccc2)cs1`, 711 cells; to `Cc1cccc(C(=O)N[C@H](C(=O)Nc2nc3ccccc3[nH]2)C(C)C)c1`, 249 cells. In the case of `COc1ccc(OC)c(NC(=O)Cc2coc3ccc4ccccc4c23)c1`, the cell count amounted to 719 cells. To `O=C(CSC1=NC2(CCCCCC2)N=C1c1ccccc1)Nc1ccc2c(c1)OCCO2` belongs 781 cells; to `COc1ccc(C(=O)O/N=C(\N)c2ccccn2)cc1`, 843 cells. Next, `CCOc1ccccc1NC(=O)c1cccc(NC(=O)C2CCCC2)c1`: 823 cells.
